B1: OR4K15 (parent)
chain: GUUAACGGUCAUAGGCCAUGGAAACUAGGAGCACCAUUUCGCUGCCAGUGAAGAAAUGAACAAAGAAAAUCUGGGCCAGGCAGGCAUCAAAAGAAAUAGUCUUGCGCUCAACCAGAAAGUCUGUAAUCAUUUUAAGGGUA

The source gives no read counts; variants with many changes may rest on few reads.

Variants of B1 are the subject of this data set. In words: self-cleavage, relative activity (ratio to wild type); higher = more cleavage; in vitro, sequencing; the parent is a self-cleaving ribozyme.
On to GUUAACGGUCAUAGGCCAAGGAAACUAGGAGCACCAUUUCGCUGCCAGUGAAGAAAUGAACAAAGAAAAUCUGGGCCAGGCAGGCAUCAAAAGAAAAAGUCUUGCGCUCAACCAGAAAGUCUGUAAUCAUUUUAAGGGCA, for which the self-cleavage came out at 1.98.
To GUUAACGGUCAUAGGCCAAGGAAACUAGGAGCACCAUUUCGCUGCCAGUGAAGAAAUGAACAAAGAAAAUCUGGGCCUGGCAGGCAUCAAAAGAAGUAGUCAUGCGCCCAACCAGAAAGUCUGUAAUCAUUUUAAGGGUA belongs 0.
For the variant GUUAACGGUCAUAGGCCAAGGAAACUAGGAGCACCAUUUCGCUGCCAGUGAAGAAAUGAACAAAGAAUAUCUGGGCCAGGCAGGCAUCAAAAGAAAUAGUCUUGCGCUCAACCAGAAAGUCUGUAAGCAUUUUAAGGGUA, the self-cleavage was 2.23.
GUUAACGGUCAUAGGCCACGGGAACUAGGAGCACCAUUUCGCCGCCAGUGAAGAAAUGAACAAAGAAAAUCUGGGCCAGGCUGGCAUCAAAAGAAAUAGUCUCGCGCUCAACCAGAAAGUCUGUAACCAUUUUAAGGGUA: the self-cleavage turned out to be 0.02.
For the variant GUUAACGGUCAUAGGCCAAGGAAACUAGGAGCACCAUUUCGCUGCCAGUGAAGAAAUGAACAAAGAAAGUCUGGGCCAGGCAGGCAUCAAAAGGAAUAGUCUUGCGCUCAACCAGAAAGUCUGUAAUCAUUUUAAGGGUA, the self-cleavage turned out to be 0.77.
As for GUUAACGGUCAUAGGCCACGGUAACUAGGAGCACCAUUUCGCUGCCAGUGAAGAAAUGAACAAAGAAAAUCUGGGCCAGGCAGGCAUCGAAAGAAAUAGUCUUGCGCUCAACCAGAAAGUCUGUAAUCAUUUUAAGGGUA, the self-cleavage stood at 1.52.
To GUUAACGGUCAUAGGCCAAGGAAACUAGGAGCACCAUUUCGCUGCCAGUGAAGGAAUGAACAAAGAAAAUCUGGGCCAGGCAGGCAUCAAGAGAAAUAGUCUUGCGCUCAACCAGAAAGUCUGCAAUCAUUUUAAGGGUA belongs 1.19.
Consider GUUAACGGUCAUAGGCCAAGGAAACUAGGAGCACCAUUUCGCCGCCAGUGAAGAAGUGAACAAAGAGAAUCUGGGCCAGGCGGGCAUCAAAAGGGAUAGUCUUGCGCUCAACCAGAAAGUCUGUAAUCAUUUUAAGGGUA, for which the self-cleavage is 0.59.
To GUUAACGGUCAUAGGCCAAGGAAACUAGGAGCACCAUUUCGCUGCCAGUGAAGAAAUGAACAAAGAAAAUCUGGGCCAGGCAGGCAUCAAAAGAAAAAGUCUUGCGCUCAACCAGGAAGUCUGUAAUCGUUUUAAGGGUA belongs 0.3.
Regarding GUUAACGGUCAUAGGCCACGGGAACUAGGAGCACCAUUUCGCUGCCAGUGAAGAAAUGAACAAAGAAAAUCUGGGCCAGGCAGGCAUCAAAAGAAAUAGUCUCGCGCUCAACCAGAAAGUCUGUAAUCAUUUUAAGGGUA, the self-cleavage was 1.14.
As for GUUAACGGUCAUAGGCCAAGGAAACUAGGAGCACCAUUUCGCUGCCAGUGAAGAAAUGAACAAAGAAAAUCUGGGCCAGGCAGGCAUCAGAAGAAAUAGUCUUGCGCUCAACCAGGAAGUCUGUAAUCAUUUUAAGGGUA, the self-cleavage is 1.28.
As for GUUAACGGUCAUAGGCCAAGGAAACUAGGAGCACCAUUCCGCUGCCAGUGAAGAAAUGUACAAAGAAAAUCCGGGCCAGGCAGGCAUCAAAGGAAAUAGUCUUGCGCUCAACCAGAAAGUCUGUAAUCAUUUUAAGGGUA, the self-cleavage turned out to be 0.17.
For GUUAACGGUCAUAGGCCAAGGAAACUAGGAGCACCACUUCGCUGACAGUGAAGAAAUGAACAAAGAAAAUCUGGGCCAGGCAGGCAUCAAAAGAAAUAGUCUUGCGCUCAACCUGAAAGUCUGUAAUCAUUUUAAGGGUA, the self-cleavage worked out at 0.1.
For GUUAACGGUCAUAGGCCAAGGAAACUAGGAGCACCAUUUCGCUGCCAGUGAAGAAAUGAACGAAGAUAAUCUGGGCCAGGCAGGCAUCAAAAGAAAUAGUCUUGCGCUCAACCAGAAAGUCUGUAAUCAUUUUAAGGGUA, the self-cleavage worked out at 1.75.
Turning to GUUAACGGUCAUAGGCCACGGAGACUAGGAGCACCAUUUCGCUGCCAGUGAAGAAAUGAACAAAGAAAAUCUGGGCCAGGCAGGCAUCAAAUGAAAUAGUCUUGCGCUCAACCAGAAAGUCUGUAAUCAUUUUAAGGGUA, the self-cleavage was 0.69.
With GUUAACGGUCAUAGGCCAAGGAAACUAGGAGCACCAUUUCGCUGCCAGUGAAGAAGCGAACAAAGAAAAUCUGGGCCAGGCAGGCAUCAGAAGAAAUAGUCUUGCGCUCAACCAGAAAGUCUGUAAUCAUUUUAAGGGUA the figure was 0.73; with GUUAACGGUCAUAGGCCAAGGAAACUAGGAGCACCAUUUCGCAGCCAGUGAAGAAAUGAACAAAGAAAAUCUGGGCCAAGCAGGCAUCAAAAGAAAUAGUCUUGCGCUCAACCGGAAAGUCUGUAAUCAUUUUAAGGGUA, 0.11.
Turning to GUUAACGGUCAUAGGCCACGGUAACUAGGAGCACCAUUUCGCUGCCAGUGAAGAAAUGAACAAAGAAAAUCUGGGCCAGGCAGGCAUCAAAAGAAAUAGUCCUGCGUUCAACCAGAGAGUCUGUAAUCAUUUUAAGGGUA, the self-cleavage came out at 0.02.
As for GUUAACGGUCAUAGGCCAAGGAAACUAGGAGCACCAUUUCGCUGCCAGUGAAGAAAUGAACAAAGUAAAUCUGGGCCAGGCAGGCAUCAAAAGAAAUAGUCUUGCGCUCAACCAGAAAGUCUGUAGUCAUUUUAAGGGUA, the self-cleavage worked out at 1.17.
To GUUAACGGUCAUAGGCCAAAGAAACUAGGAGCACCAUUUCGCUGCCAGUGAAGAAAUGAACAAAGAAAGUCUGGGCCAGGCAGGCAACAAAAGAAAUAGUCUUGCGCUCAACCAGAAAGUCUGUAAUCGUUUUAAGGGUA belongs 0.91; to GUUAACGGUCAUAGGCCAAGGAAACUAGGAGCACCAUUUCGCUGCCAGUGAAGUAAUGAACGAAGAAAAUCUGGGCCAGGCAGGCAUCAAAGGAAGUAGUCUUGCGCUCAGCCAGAAAGUCUGUAAUCAUUUUAAGGGUA, 0.04; to GUUAACGGUCAUAGGCCAAGGAAACAAGGAGCACCAUUUCGCCGCCAGUUAAGAAAUGAACAAAGAAAAUCUGGGCCAGGCAGGCAUCAAAAGAAAUAGUCUUGCGCUCAACCAGAAAGUCUGUAAUCAUUUUAAGGGUA, 1.37.
To GUUAACGGUCAUAGGCCACGGGAACUAGGAGCACCAUUUCGCUGCCAGAGAAGAAAUGAACAAAGAAAAUCUGGGCCAGGCAGGCAUCAAAAGAAGUAGUUUUGCGCUCAACCAGAAAGUCUGUAAUCACUUUAAGGGAA belongs 0.13; to GUUAACGGUCAUAGGCCAAGGAAACUAGGAGCACCAUUUCGCUGCCAGUGAAGAAAUGAACAAAGAAAAUCAGGGCCAGGCAGGCAUCAAAAGAAAUAGUCUUGCGCUCAGCCAGAGAGUCUGUAAUCAUUUUAAGGGUA, 0; to GUUAACGGUCAUAGGCCACGGGAACUAGGAGCACCAUUUCGCUGCCAGUGAAGAAAUGAACAAAGAAAAUCUGGGCCAGGCAGGCAUCGAAAGAAAUAGUCUUGCGCUCAACCAGAAAGUCUGUAAUCAUUUUAAGGGUA, 0.48.
Turning to GUUAACGGUCAUAGGCCAAGGAAACUAGGAGCACCAUUUCGCUGCCAGUGAAGAAAUGAACAAAGGAAAUCUGGGCCAGGCAGGCAUCAUAAGAAAUAGUCUUGCGCUCAACCAGGAGGUCUGUAAUCAUUUUAAGGGUA, the self-cleavage came out at 0.5.
In the case of GUUAACGGUCAUAGGCCAAGGAAACUAGGAGCACCAUUUCGCUGCCAGUGAGGAAAUGAACAAAGAAAAUCUGGGCCAGGCGGGCAUCAAAAGAAAUAGUCUUGCGCUCAACCAGAAAGUCUGUAAUCAAUUUAAGGGUA, the self-cleavage was found to be 0.14.
Regarding GUUAACGGUCAUAGGCCAAGGAAACUAGGAGCACCAUUUCGCUGCCAGUGAAGUAAUGAACAAAGAAAAUCUGGGCCGGGCAGGCAUCAAAAGAAAUAGUCUUGCGCUCAACCAGAAAGUCUGUAAUCAUUUUAAGGGUA, the self-cleavage turned out to be 0.24.
As for GUUAACGGUCAUAGGCCAAGGAAACUAGGAGCACCAUUUCGCUGCCAGUGAAGAAAUGAACAAAGAAAAUCUGGGCCUGGCUGGCAUCAAAAGAAAUAGUCUUGCGCUCAACCAGAAAGUCUGUAAUCAUUUUAAGGGUA, the self-cleavage came to 0.14.
With GUUAACGGUCAUAGGCCAAGGAAACUAGGAGCACCAUUUCGCUGCCAGUGAAGAAAUGAACAAAGAAAAUCUGGGCCAGGCAGGCAUCAAAAGAAAUAGUCCUGCGCUCAACCAGAAAGUCUGUAACCAUUCUAAGGGUA the figure was 0.59; with GUUAACGGUCAUAGGCCAAGGAAACUAGGAGCACCAUUUCGCUGCCAGUGAAGAAAUGGACAAAGAAAAUCUGGGCCAGGCAGGCUUCAAAAGAAAUGGUCUUGCGCUCAACCAGAAAGUCUGUAAUCAUUUUAAGGGUA, 1.46; with GUUAACGGUCAUAGGCCAAGGAAACUAGGAGCACCAUUUCGCUGCCAGUGAAGAAAUGAACGAAGAAAAUCUGGGCCAGGCAGGCAUCAAAAGAAAUAGUCUCGCGCUCAACCAGAAAGUCUGUAAUCAUUUUAAGGGUA, 1.03.
Turning to GUUAACGGUCAUAGGCCACGGAGACUAGGGGCUCCAUUUCGCUGCCAGUGAAGAAAUGAAUAAAGAAAAUCUGGGCCAGGCAGGCAUCAAAAGAAAUAGUCUUGCGCUCGACCAGAAGGUCUGUAAUCAUUUUAAGGGUA, the self-cleavage was 0.13.
In the case of GUUAACGGUCAUAGGCCAAGGAAACUAGGAGCACCAUUUCGCUGCCAGUGAAGACAUGAACAAAGAAAAUCUGGGCCAGGCAGGCAUCAAAAGAAAUAGUCAUGCGCUCAACCAGAGAGUCUGUAAUCAUUUUAAGGGUA, the self-cleavage was determined as 0.72.
In the case of GUUAACGGUCAUAGGCCACGGAGACUAGGAGCACCAUUUCGCUGCCAGUGAAGAAAUGAACAAAGCAAAUCUGGGCCAGGCAGGCAUCAAAAGAAAUAGUCUUGCGCUCAUCCAGAAAGUCUGUAAUCAUUUUAAGGGUA, the self-cleavage came to 0.28.
With GUUAACGGUCAUAGGCCAAGGAAACUAGGAGCACCAUUUCGCUGCCAGUGAAGAAAUGAACAAAGAAAAUCUGGGCCAGGCAGGUAUCGAAAGAGAUAGUCUUGCGCUCAGCCAGAAUGUCUGUAAUCAUUUUAAGGGUA the figure was 0.01.
With GUUAACGGUCAUAGGCCAAGGAAACUAGGAGCACCAUUUCGCUGCCAGUGAAGGAAUGAACAAAGAAAAUCUGGGCCAGGCAGGCAUCAAAAGAAAUAGUCUUGCGCUCAACCAGGAAGUCUGUAAUCAUUUUAAGGGUA the figure was 0.56.
With GUUAACGGUCAUAGGCCACGGGAACUAGGGGCACCAUUUCGCUGCCAGUGAAGAAAUGAACAAAGAAAAUCUGGGCCAGGCAGGCAUCUAAAGAAGUAGUCUUGCGCUCAACCAGAAAGUCUGUAAUCAUUUUAAGGGUA the figure was 0.84.
GUUAACGGUCAUAGGCCAAGGAAACUAGGAGCACCAUUUCGCUGCCAGUGAAGGAAUGAACAAAGAAAAUCUGGGCCAGGCAGGCGUCAAAAGAAAUAGUCUUGCGCUCAACCAGAAAGUCUGUAAUCAUUUUAAGGGUA: the self-cleavage was found to be 1.42.
On to GUUAACGGUCAUAGGCCAAGGAAACUAGGAGCACCAUUUCGCUGCCAGUGAAGAAAUGAACAAAGAAAAUCUGGGCCAGGCAGGCAUCAAAAGAAAUAGUCUUGCGCCCAACCAGAAAGUCUGCAAUCAUUUUAAGGGUA, for which the self-cleavage came out at 0.01.
On to GUUAACGGUCAUAGGCCAAGGAAACUAGGAGCACCAUUGCGCUGCCAGUGAAGAAAUGAACAAAGAAAAUCUGGGCCAGGCAGGCAUCAAAAGAAAUAGUCUCGCGCUCAACCAGAAAGUCUGUAAUCAUUUUAAGGGUA, for which the self-cleavage came to 0.86.
